# Whole data set: some 81,000 sequences, median “one-hybrid fitness for binding parS DNA” near -0.17, cut for the highest 2% near 0.51. The list shows a part of the results.
# B1: Caulobacter ParB omega fusion; a variant is named by its letters at X, in order, B8GW30 (parent)
# chain: MESVVVGEPGMSEGRRGLGRGLSALLGEVDAAPAQAPGEQLGGSREAPIEILQRNPDQPRRTFREEDLEDLSNSIREKGVLQPILVRPSPDTAGEYQIVAGERAWRAAQRAGLKTVPIMVRELDDLAVLEIGIIENVQRADLNVLEEALSYKVLMEKFERTQENIAQTIGKSXSHVANXMRLLXLPDEVQSYLVSGELTAXHARAIAAAADPVALAKQIIEGGLSVRETEALARKAPNLSAGKSKGGRPPRVKDTDTQALESDLSSVLGLDVSIDHRGSTGTLTITYATLEQLDDLCNRLTRGI
# Variants of: B1
# Test: one-hybrid fitness for binding parS DNA (scaled: cognate 1, non-cognate 0); higher = stronger binding
# Conditions: with parS DNA site
# Method in brief: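 Values were rescaled so that cognate is 1 and non-cognate is 0. Each is a fitness, the log change in a variant's read ratio to wild type from Illumina reads of plasmids before and after selection, with three replicate libraries pooled and variants under 10 reads dropped. Selection of the Caulobacter ParB libraries, four specificity codons randomised, used E. coli USO with a HIS3 reporter, site 19 bp from the promoter, on M9-minus-histidine with 0.1 mM IPTG and 5 mM 3-AT for 48 hours at 37°C.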
row,Variant,one-hybrid fitness for binding parS DNA
1,SLRY,≤ 0.2
2,VGHV,≤ 0.2
3,NHWV,≤ 0.2
4,QHYE,≤ 0.2
5,PWSS,≤ 0.2
6,QSSA,≤ 0.2
7,LGPS,≤ 0.2
8,DPPP,≤ 0.2
9,CRSV,≤ 0.2
10,RLFW,0.259
11,KICK,≤ 0.2
12,CLEG,≤ 0.2
13,QRIH,≤ 0.2
14,QRCP,≤ 0.2
15,TSHV,≤ 0.2
16,ADPI,≤ 0.2
17,RAKS,0.874
18,DIRR,≤ 0.2
19,MYLT,≤ 0.2
20,RWFA,0.298
21,NKTC,≤ 0.2
22,EPWS,≤ 0.2
23,DSCK,≤ 0.2
24,QYIL,≤ 0.2

row,Variant,one-hybrid fitness for binding parS DNA
1,NYLV,≤ 0.2
2,KYDL,≤ 0.2
3,KRDV,≤ 0.2
4,HCSM,≤ 0.2
5,SMRV,≤ 0.2
6,TPSN,≤ 0.2
7,FTLG,≤ 0.2
8,LSLL,≤ 0.2
9,DILT,≤ 0.2
10,QTHC,≤ 0.2
11,VHES,≤ 0.2
12,MDVT,≤ 0.2
13,VHPL,≤ 0.2
14,CRNN,≤ 0.2
15,QVHR,≤ 0.2
16,QMGI,≤ 0.2
17,MKLT,≤ 0.2
18,MMSS,≤ 0.2
19,KDIS,≤ 0.2
20,VAVF,≤ 0.2
21,ILFV,≤ 0.2
22,RFFV,≤ 0.2
23,PFQR,≤ 0.2
24,IVMR,≤ 0.2

row,Variant,one-hybrid fitness for binding parS DNA
1,PYDL,≤ 0.2
2,TWTG,≤ 0.2
3,PPQD,≤ 0.2
4,QKSN,≤ 0.2
5,MCTL,≤ 0.2
6,REAM,≤ 0.2
7,EISE,≤ 0.2
8,SIEC,≤ 0.2
9,RCPA,0.432
10,MLTL,≤ 0.2
11,IWDG,≤ 0.2
12,QRLQ,≤ 0.2
13,SYGR,≤ 0.2
14,GSHH,≤ 0.2
15,GPFC,≤ 0.2
16,LPFD,≤ 0.2
17,TDCI,≤ 0.2
18,IKTV,≤ 0.2
19,SARN,≤ 0.2
20,QDGG,≤ 0.2
21,DGTM,≤ 0.2
22,QLDY,≤ 0.2
23,LNMH,≤ 0.2
24,YTHF,≤ 0.2

row,Variant,one-hybrid fitness for binding parS DNA
1,QPKA,≤ 0.2
2,AHQW,≤ 0.2
3,YQMC,≤ 0.2
4,QFLS,≤ 0.2
5,FTCT,≤ 0.2
6,VVLC,≤ 0.2
7,MHGT,≤ 0.2
8,RMKM,0.391
9,PRYN,≤ 0.2
10,DINY,≤ 0.2
11,VTMT,≤ 0.2
12,FLPS,≤ 0.2
13,QHER,≤ 0.2
14,MVCT,≤ 0.2
15,PTWF,≤ 0.2
16,TKSC,≤ 0.2
17,FSSF,≤ 0.2
18,QQLM,≤ 0.2
19,YKFC,≤ 0.2
20,LYGT,≤ 0.2
21,VMYC,≤ 0.2
22,EDMT,≤ 0.2
23,HKEV,≤ 0.2
24,KDHF,≤ 0.2

row,Variant,one-hybrid fitness for binding parS DNA
1,LNWT,≤ 0.2
2,EHND,≤ 0.2
3,RTHH,≤ 0.2
4,PQDM,≤ 0.2
5,YMTR,≤ 0.2
6,TARD,≤ 0.2
7,HGPG,≤ 0.2
8,VFPF,≤ 0.2
9,RDSA,≤ 0.2
10,AGLL,≤ 0.2
11,NAMC,≤ 0.2
12,KHRQ,≤ 0.2
13,GSPM,≤ 0.2
14,CYNC,≤ 0.2
15,VWDS,≤ 0.2
16,PQIT,≤ 0.2
17,DVGL,≤ 0.2
18,DAQC,≤ 0.2
19,RPGW,≤ 0.2
20,QDFG,≤ 0.2
21,QCSL,≤ 0.2
22,TVCF,≤ 0.2
23,LEKR,≤ 0.2
24,RISL,≤ 0.2

row,Variant,one-hybrid fitness for binding parS DNA
1,ITAN,≤ 0.2
2,EKRR,≤ 0.2
3,KPFW,≤ 0.2
4,HPYQ,≤ 0.2
5,WSCD,≤ 0.2
6,NGRW,≤ 0.2
7,EKRG,≤ 0.2
8,CPKR,≤ 0.2
9,VNLI,≤ 0.2
10,WDGG,≤ 0.2
11,NEFG,≤ 0.2
12,MWPS,≤ 0.2
13,LSPI,≤ 0.2
14,NPPV,≤ 0.2
15,YYSR,≤ 0.2
16,TYSR,≤ 0.2
17,HGCC,≤ 0.2
18,DQNS,≤ 0.2
19,WMGT,≤ 0.2
20,CYPS,≤ 0.2
21,LRMA,≤ 0.2
22,YHID,≤ 0.2
23,ILVS,≤ 0.2
24,RHWW,≤ 0.2

row,Variant,one-hybrid fitness for binding parS DNA
1,AAYK,≤ 0.2
2,HQKC,≤ 0.2
3,RKRF,≤ 0.2
4,YANV,≤ 0.2
5,SMIF,≤ 0.2
6,GDKF,≤ 0.2
7,LIAS,≤ 0.2
8,QQLI,≤ 0.2
9,LDTP,≤ 0.2
10,MLLH,≤ 0.2
11,MTDE,≤ 0.2
12,AVWT,≤ 0.2
13,AVNR,≤ 0.2
14,STYF,≤ 0.2
15,QPRY,≤ 0.2
16,HSQV,≤ 0.2
17,SKRT,≤ 0.2
18,TPPF,≤ 0.2
19,PWDG,≤ 0.2
20,VWRT,≤ 0.2
21,DAET,≤ 0.2
22,QTYG,≤ 0.2
23,NAYG,≤ 0.2
24,IRCW,≤ 0.2

row,Variant,one-hybrid fitness for binding parS DNA
1,VRTD,≤ 0.2
2,SATV,≤ 0.2
3,RGPA,≤ 0.2
4,RQIP,≤ 0.2
5,SQVQ,≤ 0.2
6,QHKR,≤ 0.2
7,AADY,≤ 0.2
8,CSVI,≤ 0.2
9,SQQS,≤ 0.2
10,TPGV,≤ 0.2
11,NRER,≤ 0.2
12,RMMW,0.215
13,FPQC,≤ 0.2
14,NRVT,≤ 0.2
15,IANC,≤ 0.2
16,GHDG,≤ 0.2
17,TNSV,≤ 0.2
18,SLPQ,≤ 0.2
19,NSMW,≤ 0.2
20,QEDT,≤ 0.2
21,IACT,≤ 0.2
22,GHPI,≤ 0.2
23,SPPL,≤ 0.2
24,CVKM,≤ 0.2

row,Variant,one-hybrid fitness for binding parS DNA
1,WRCR,≤ 0.2
2,FINR,≤ 0.2
3,LTER,≤ 0.2
4,TVNG,≤ 0.2
5,MRTY,≤ 0.2
6,VAHS,≤ 0.2
7,RNRP,≤ 0.2
8,WMNT,≤ 0.2
9,YTWS,≤ 0.2
10,WSNY,≤ 0.2
11,HWTK,≤ 0.2
12,RIWN,0.455
13,FNTD,≤ 0.2
14,MISR,≤ 0.2
15,DRCD,≤ 0.2
16,SITA,≤ 0.2
17,RVFW,≤ 0.2
18,AKQY,≤ 0.2
19,HEGL,≤ 0.2
20,GQSN,≤ 0.2
21,GWPF,≤ 0.2
22,KHSY,≤ 0.2
23,RLTH,0.232
24,AFKR,0.237

row,Variant,one-hybrid fitness for binding parS DNA
1,SRMK,≤ 0.2
2,DILC,≤ 0.2
3,SISY,≤ 0.2
4,NTMI,≤ 0.2
5,RICD,≤ 0.2
6,YSEG,≤ 0.2
7,DSYS,≤ 0.2
8,QQGR,≤ 0.2
9,SDMD,≤ 0.2
10,HQSW,≤ 0.2
11,RSWH,≤ 0.2
12,LFIY,≤ 0.2
13,VHLN,≤ 0.2
14,MPRA,≤ 0.2
15,VSTA,≤ 0.2
16,TGRA,≤ 0.2
17,CRTQ,≤ 0.2
18,IITS,≤ 0.2
19,MTPR,≤ 0.2
20,QLVP,≤ 0.2
21,KGLS,≤ 0.2
22,TNFS,≤ 0.2
23,AHAT,≤ 0.2
24,YGTS,≤ 0.2

row,Variant,one-hybrid fitness for binding parS DNA
1,ARHY,≤ 0.2
2,NMAG,≤ 0.2
3,DMHS,≤ 0.2
4,TGQV,≤ 0.2
5,VAHC,≤ 0.2
6,QIHY,≤ 0.2
7,YELI,≤ 0.2
8,SVED,≤ 0.2
9,REYV,≤ 0.2
10,KVTF,≤ 0.2
11,RMKH,0.24
12,QVVI,≤ 0.2
13,FRKL,≤ 0.2
14,KYAD,≤ 0.2
15,MNRC,≤ 0.2
16,PLNW,≤ 0.2
17,DFHS,≤ 0.2
18,HKGR,≤ 0.2
19,KHHS,≤ 0.2
20,SAEG,≤ 0.2
21,PDCL,≤ 0.2
22,ACSS,≤ 0.2
23,PQAV,≤ 0.2
24,HMFC,≤ 0.2

row,Variant,one-hybrid fitness for binding parS DNA
1,WTYT,≤ 0.2
2,QNSA,≤ 0.2
3,NRIC,≤ 0.2
4,MTRT,≤ 0.2
5,YMDS,≤ 0.2
6,LKQM,≤ 0.2
7,EGDT,≤ 0.2
8,KSLW,≤ 0.2
9,YILG,≤ 0.2
10,KMKL,≤ 0.2
11,AWTR,≤ 0.2
12,QVCS,≤ 0.2
13,KTMA,≤ 0.2
14,GWIT,≤ 0.2
15,HHTG,≤ 0.2
16,TVGC,≤ 0.2
17,QYCR,≤ 0.2
18,SKHT,≤ 0.2
19,PRDG,≤ 0.2
20,SDYH,0.273
21,KATH,≤ 0.2
22,FYQV,≤ 0.2
23,YNGG,≤ 0.2
24,GKWW,≤ 0.2

row,Variant,one-hybrid fitness for binding parS DNA
1,DREA,≤ 0.2
2,NVQV,≤ 0.2
3,TFKK,0.337
4,DFQV,≤ 0.2
5,RFIF,≤ 0.2
6,SGTD,≤ 0.2
7,WASS,≤ 0.2
8,GRNL,≤ 0.2
9,TRES,≤ 0.2
10,SAMG,≤ 0.2
11,IFLT,≤ 0.2
12,HTWL,≤ 0.2
13,TKCA,≤ 0.2
14,LEPF,≤ 0.2
15,RCNA,0.719
16,SKLK,≤ 0.2
17,CAYS,≤ 0.2
18,RTPF,≤ 0.2

# From a collection of fitness landscapes (doi:10.1016/j.celrep.2020.107928)
